Read-outs that look alike come from different tables or passages of the source.
Target: T1, Human EphA2 (Homo sapiens, UniProt P29317)
T1 construct: EphA2 (Ecto); polyHis (C)
Assay: Fluorescence polarisation direct binding assay
Conditions: read-out: KD, nM ± 95% CI Human EphA2

T1 sequence (P29317 24-537 limits assumed): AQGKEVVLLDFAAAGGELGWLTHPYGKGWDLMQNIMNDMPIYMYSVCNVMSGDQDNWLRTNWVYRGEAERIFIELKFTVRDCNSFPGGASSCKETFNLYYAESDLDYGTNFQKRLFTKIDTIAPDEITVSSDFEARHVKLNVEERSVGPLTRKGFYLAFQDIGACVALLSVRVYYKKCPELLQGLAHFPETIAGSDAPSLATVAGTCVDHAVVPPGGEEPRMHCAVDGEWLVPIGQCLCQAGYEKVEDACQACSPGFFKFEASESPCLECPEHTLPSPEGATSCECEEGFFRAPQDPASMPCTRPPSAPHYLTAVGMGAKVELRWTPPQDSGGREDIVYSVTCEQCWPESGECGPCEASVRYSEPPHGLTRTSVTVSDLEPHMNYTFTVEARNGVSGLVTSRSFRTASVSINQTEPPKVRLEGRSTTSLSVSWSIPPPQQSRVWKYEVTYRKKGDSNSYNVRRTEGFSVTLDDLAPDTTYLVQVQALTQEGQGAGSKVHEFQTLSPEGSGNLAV

SMILES	Kd (Table 3, fluorescently tagged TBMB peptides)	Kd (Table 5)
CSCC[C@@H]1NC(=O)[C@@H]2CCCN2C(=O)CNC(=O)[C@H](Cc2c[nH]c3ccccc23)NC(=O)[C@@H]2CCCN2C(=O)[C@@H](NC(=O)[C@H](C)NC(=O)CN(C)C(=O)CN(C)C(=O)CN(C)C(=O)CN(C)C(=O)CN(C)C(=O)CNC(=O)c2ccc3c(c2)C(=O)OC32c3ccc(O)cc3Oc3cc(O)ccc32)CSCc2cc3cc(c2)CSC[C@H](NC(=O)[C@H](Cc2c[nH]c4ccccc24)NC1=O)C(=O)N1CCC[C@H]1C(=O)N[C@@H](C(C)C)C(=O)N[C@@H](CC(N)=O)C(=O)N[C@@H](CCCNC(=N)N)C(=O)N1CCC[C@H]1C(=O)NCC(=O)N[C@H](C(=O)N[C@@H](C)C(N)=O)CSC3 [A15]	12.6 ± 2.55 nM	–
CC(C)[C@@H]1NC(=O)[C@@H]2CCCN2C(=O)[C@@H]2CSCc3cc(cc(c3)CSC[C@H](NC(=O)[C@H](C)NC(=O)CN(C)C(=O)CN(C)C(=O)CN(C)C(=O)CN(C)C(=O)CN(C)C(=O)CNC(=O)c3ccc4c(c3)C(=O)OC43c4ccc(N)c(S(=O)(=O)O)c4Oc4c3ccc(N)c4S(=O)(=O)O)C(=O)N3CCC[C@H]3C(=O)N[C@@H](Cc3c[nH]c4ccccc34)C(=O)NCC(=O)N3CCC[C@H]3C(=O)N[C@@H](Cc3ccccc3)C(=O)N[C@@H](Cc3c[nH]c4ccccc34)C(=O)N2)CSC[C@@H](C(N)=O)NC(=O)CNC(=O)[C@@H]2CCCN2C(=O)[C@H](CCCNC(=N)N)NC(=O)[C@H](CC(N)=O)NC1=O [A67]	–	15 ± 1.72 nM

From patent US11814447B2, “Peptide ligands for binding to EphA2” (BICYCLERD LIMITED, priority 2018, dated 2023)
